The text below walks through data of article PMC4336329 (PLoS ONE, 2015).

About 2,200 (0.71%) of roughly 310,000 compounds showed an effect of 50% or more. The effect is printed as a negative number. Some of the results follow.

The assay deals with human ether-à-go-go-related gene (hERG) potassium channel (human, UniProt Q12809). In words: primary screen, population patch clamp on CHO cells stably expressing hERG.
human ether-à-go-go-related gene (hERG) potassium channel, sequence (Q12809 whole entry, looked up): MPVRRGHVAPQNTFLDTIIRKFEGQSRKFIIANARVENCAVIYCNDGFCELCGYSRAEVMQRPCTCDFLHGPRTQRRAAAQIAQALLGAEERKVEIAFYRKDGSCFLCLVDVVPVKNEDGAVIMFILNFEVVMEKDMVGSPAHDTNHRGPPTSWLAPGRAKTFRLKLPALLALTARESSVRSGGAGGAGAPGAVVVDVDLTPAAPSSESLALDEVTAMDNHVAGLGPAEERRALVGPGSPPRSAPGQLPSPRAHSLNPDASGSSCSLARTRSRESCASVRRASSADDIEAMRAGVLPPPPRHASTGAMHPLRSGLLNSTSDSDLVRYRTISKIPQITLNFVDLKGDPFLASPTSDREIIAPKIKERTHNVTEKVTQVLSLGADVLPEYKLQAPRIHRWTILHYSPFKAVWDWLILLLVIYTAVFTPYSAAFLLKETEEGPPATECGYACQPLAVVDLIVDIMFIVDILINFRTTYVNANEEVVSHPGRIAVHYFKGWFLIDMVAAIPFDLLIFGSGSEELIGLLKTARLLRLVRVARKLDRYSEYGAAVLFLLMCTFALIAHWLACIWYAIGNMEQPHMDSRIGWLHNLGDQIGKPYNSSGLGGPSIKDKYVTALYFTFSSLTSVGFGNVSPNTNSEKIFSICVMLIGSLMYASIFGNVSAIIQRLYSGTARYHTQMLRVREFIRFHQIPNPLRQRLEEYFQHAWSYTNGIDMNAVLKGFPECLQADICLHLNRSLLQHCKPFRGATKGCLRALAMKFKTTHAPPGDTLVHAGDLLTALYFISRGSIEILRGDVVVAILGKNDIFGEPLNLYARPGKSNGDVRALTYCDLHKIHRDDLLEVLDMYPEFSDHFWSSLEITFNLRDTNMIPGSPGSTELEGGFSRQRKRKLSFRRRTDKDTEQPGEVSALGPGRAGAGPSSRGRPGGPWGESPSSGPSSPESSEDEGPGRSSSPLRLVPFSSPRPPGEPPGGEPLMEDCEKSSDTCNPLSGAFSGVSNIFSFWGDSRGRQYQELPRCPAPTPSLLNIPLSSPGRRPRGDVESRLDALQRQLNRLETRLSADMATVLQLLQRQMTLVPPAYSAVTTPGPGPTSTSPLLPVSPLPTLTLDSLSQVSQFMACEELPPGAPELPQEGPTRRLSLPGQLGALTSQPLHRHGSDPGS
In the case of `O=C(Oc1cccc(NC(=O)c2ccccc2Cl)c1)c1ccc([N+](=O)[O-])cc1`, the “hERG current change (%, negative = inhibition) at 1uM” value is given as 12.4%.

As for `O=C(Nc1cccc(C(F)(F)F)c1)Nc1ccon1`, the “hERG current change (%, negative = inhibition) at 1uM” value was found to be 8.9%.

Take `CCOCC(=O)N1CCc2ccccc21`: the “hERG current change (%, negative = inhibition) at 1uM” value was 1.69%. Consider `Nc1ncn([C@H]2C[C@H](O)[C@@H](CO)O2)c(=O)n1`, for which the “hERG current change (%, negative = inhibition) at 1uM” value is on record as 24.5%. As for `COc1cc2c(cc1NC(=O)CN(C)Cc1ccc(OC)c(OC)c1)oc1ccccc12`, the “hERG current change (%, negative = inhibition) at 1uM” value is on record as 11.8%. Next, `COc1ccc2c(c1)OC[C@H]1[C@H]2N2C(=O)c3cc(OC)ccc3NC(=O)[C@@]2(C)[C@H]1c1ccccc1`: 5.36%; `O=[N+]([O-])c1ccc(C[n+]2cccc3ccc4cccnc4c32)cc1.[Br-]`: -33.1%.

Regarding `COc1ccc(-c2csc3ncnc(N4CCN(c5ccc(OC)cc5)CC4)c23)cc1`, the “hERG current change (%, negative = inhibition) at 1uM” value is given as 4.63%. For the compound `O=C(c1cc(-c2ccccc2)on1)N1CCC2(CC1)OCCO2`, the “hERG current change (%, negative = inhibition) at 1uM” value came to 10.2%. Take `Cc1ccccc1OC(=O)c1cccc(S(=O)(=O)N2CCN(C)CC2)c1`: the “hERG current change (%, negative = inhibition) at 1uM” value is recorded as 4.58%. As for `CCCCn1c(S(=O)(=O)O)nc2ccccc21`, the “hERG current change (%, negative = inhibition) at 1uM” value was found to be 16.8%. Take `CCOc1ccc(C(O)(c2ccccc2)C(CN2CCCC2)c2ccccc2)cc1.Cl` (stereo not drawn): the “hERG current change (%, negative = inhibition) at 1uM” value is on record as 3.98%. The result for `COc1ccc(OC)c(NC(=O)NCCCCc2ccccc2)c1` reads 4.57%; that for `CC(Nc1cc(N2CCN(S(C)(=O)=O)CC2)ccc1[N+](=O)[O-])c1ccccc1` (stereo not drawn), 7.96%; that for `Cc1ccc(CN/C=C/C(=O)c2ccc(Br)cc2)cc1`, -3.93%.

Consider `C=CCNc1nnc(-c2ccncc2)s1`, for which the “hERG current change (%, negative = inhibition) at 1uM” value is -1.86%.

For the compound `CCc1ccc(CNc2ccc(O)cc2)cc1`, the “hERG current change (%, negative = inhibition) at 1uM” value was 12.5%. `CCCC1O[C@@H]2C[C@H]3[C@@H]4CCC5=CC(=O)C=C[C@]5(C)[C@H]4[C@@H](O)C[C@]3(C)[C@]2(C(=O)CO)O1` (stereo partly drawn): the “hERG current change (%, negative = inhibition) at 1uM” value was found to be 8.4%. Take `c1ccc2c(c1)nc(-c1ccncc1)n1nnnc21`: the “hERG current change (%, negative = inhibition) at 1uM” value is -5.2%. `O=C1CC(Nc2ccc3ccccc3c2)C(=O)N1Cc1ccccc1` (stereo not drawn): the “hERG current change (%, negative = inhibition) at 1uM” value is 13.6%. For `CCOc1ccc(-c2nnc(-c3ccco3)o2)cc1`, the “hERG current change (%, negative = inhibition) at 1uM” value is 3.85%. Take `CN1CCN(NC(=O)C23CC4CC(CC(C4)C2)C3)CC1.Cl`: the “hERG current change (%, negative = inhibition) at 1uM” value is recorded as -17.1%. For `CCc1ccccc1OCC(=O)Nc1ccc2c(c1)OCCO2`, the “hERG current change (%, negative = inhibition) at 1uM” value is listed as 0.603%. For the compound `CC(C)CCn1c(=O)c2ccccc2n2c(=S)[nH]nc12`, the “hERG current change (%, negative = inhibition) at 1uM” value was found to be 15.6%. As for `COc1ccc(S(=O)(=O)N2CCN(Cc3ccc4c(c3)OCO4)CC2)cc1F`, the “hERG current change (%, negative = inhibition) at 1uM” value was 19.7%. On to `CCCCOc1ccc(C2C3CN(C(=O)OCC)CC=C3C(C#N)=C(N)C2(C#N)C#N)cc1OC` (stereo not drawn), for which the “hERG current change (%, negative = inhibition) at 1uM” value worked out at 13.3%. Turning to `COc1ccc(CCN2CC(C(=O)NCc3cnn(C(C)C)c3)CCC2=O)cc1` (stereo not drawn), the “hERG current change (%, negative = inhibition) at 1uM” value is given as 17.5%. For the compound `O=C(CSc1nn(-c2ccccc2)c(=S)s1)Nc1ncccn1`, the “hERG current change (%, negative = inhibition) at 1uM” value amounted to 12.2%. The result for `O=C(CSCCO)Nc1cccc(C(F)(F)F)c1` reads -7.28%; that for `COc1ccc(CNC(=O)CN(C(=O)CCC(=O)Nc2ccccn2)c2cc(C)ccc2C)cc1`, 5.61%; that for `Cc1ccc(C)c(NC(=O)C2CC3CCC2C3)c1` (stereo not drawn), 8.82%. In the case of `COc1cc(NC(=O)COC(=O)CSc2ccc3ccccc3c2)c(C)cc1[N+](=O)[O-]`, the “hERG current change (%, negative = inhibition) at 1uM” value was -0.202%. Consider `CCc1nccn1-c1cc(C(C)(C)C)nc2c(-c3ccc(Cl)cc3)cnn12`, for which the “hERG current change (%, negative = inhibition) at 1uM” value turned out to be 12.4%.

For `O=C(NCCc1ccc(Cl)cc1)C1CCN(c2cnccn2)CC1`, the “hERG current change (%, negative = inhibition) at 1uM” value was -7.01%. `Cc1ccccc1Nc1nc(-c2sc(NC(=O)c3cccc(Cl)c3)nc2C)cs1`: the “hERG current change (%, negative = inhibition) at 1uM” value is 10.5%. Next, `c1ccc(-c2cnc(-c3ccccc3)nn2)cc1`: 15.2%. On to `Cc1ccc2cccc(OCC(=O)N3CCc4ccccc43)c2n1`, for which the “hERG current change (%, negative = inhibition) at 1uM” value worked out at 8.81%. Take `CC(OC(=O)c1nc(Cl)ccc1Cl)C(=O)Nc1ccccc1F` (stereo not drawn): the “hERG current change (%, negative = inhibition) at 1uM” value was found to be 14.2%. Next, `O=C(Nc1cccc(Cl)c1)OCc1cncs1`: 3.01%; `CC1(CC(=O)O)SC(=O)NC1=O` (stereo not drawn): -7.21%. Next, `COCCN1C(=O)C(O)=C(C(C)=O)C1c1ccc(F)cc1` (stereo not drawn): -10.7%; `COc1ccc(OC)c(NC(=S)NCc2cccnc2)c1`: 11.8%. Take `Cc1ccc(S(=O)(=O)CC(=O)c2ccc(C(C)(C)C)cc2)cc1`: the “hERG current change (%, negative = inhibition) at 1uM” value came to 2.43%. Take `OCC(O)/C=N/Nc1nc2ccccc2s1` (stereo not drawn): the “hERG current change (%, negative = inhibition) at 1uM” value was found to be 9.56%. On to `O=C1c2ccccc2C(=O)N1C(CO)C(O)c1ccc([N+](=O)[O-])cc1` (stereo not drawn), for which the “hERG current change (%, negative = inhibition) at 1uM” value is recorded as 3.43%.

For the compound `O=C(NCC(c1ccco1)N1CCOCC1)c1cccc(Cl)c1` (stereo not drawn), the “hERG current change (%, negative = inhibition) at 1uM” value is on record as -0.645%.

As to `CCCc1cc(=O)oc2cc(O[C@@H]3O[C@H](CO)[C@@H](O)[C@H](O)[C@H]3O)ccc12`, the “hERG current change (%, negative = inhibition) at 1uM” value is 14.4%.

In the case of `CCOc1ccc(OCC)c(NC(=O)CN2CCN(c3ccc(C)cc3C)CC2)c1.Cl`, the “hERG current change (%, negative = inhibition) at 1uM” value is 6.37%. On to `C/C(=N\NC(=S)Nc1c(C)cccc1C)c1ccc(OC(F)F)cc1`, for which the “hERG current change (%, negative = inhibition) at 1uM” value is given as 6.89%. As to `Cc1ccc(NC(=O)CN(c2ccc3c(c2)OCO3)S(=O)(=O)c2c(C)n[nH]c2C)cc1`, the “hERG current change (%, negative = inhibition) at 1uM” value was determined as 9.19%. Regarding `O=C(CCC(=O)N(CC(=O)NC1CCCC1)Cc1ccccc1Cl)Nc1nccs1`, the “hERG current change (%, negative = inhibition) at 1uM” value is reported as 14.6%. Next, `CC(C)(C)C(=O)NN=C1CCC(c2ccccc2)CC1` (stereo not drawn): 12.6%. Turning to `CN(CC(=O)Nc1ccc(F)cc1)CC(=O)Nc1ccc(Cl)c(S(=O)(=O)N2CCOCC2)c1`, the “hERG current change (%, negative = inhibition) at 1uM” value was 1.9%.

For `Oc1ccc(Br)cc1/C=N/N1CCN(Cc2cccc3ccccc23)CC1`, the “hERG current change (%, negative = inhibition) at 1uM” value is listed as 11.5%.

For `Cc1ccc(-n2nc(C)c3c2OC(N)=C(C#N)C3c2ccncc2)cc1` (stereo not drawn), the “hERG current change (%, negative = inhibition) at 1uM” value stood at 8.82%. Next, `Cc1ccc([N+](=O)[O-])c(OCCCN2CCCCCC2)c1.O=C(O)C(=O)O`: -14.5%; `COc1cccc(/C=N/NC(=O)CCn2cnc3ccccc32)c1`: 9.74%.
